Source: patent US20110091470A1, “ANTI-FLT3 ANTIBODIES” (IMCLONE LLC, priority 2008, published 2011)

Target: ITD-mutant FLT3 expressed on BaF3-ITD cells
Assay: cell-based or functional assay

Sequence of ITD-mutant FLT3 expressed on BaF3-ITD cells (chain, as listed by the source mutant limits assumed, form in doubt): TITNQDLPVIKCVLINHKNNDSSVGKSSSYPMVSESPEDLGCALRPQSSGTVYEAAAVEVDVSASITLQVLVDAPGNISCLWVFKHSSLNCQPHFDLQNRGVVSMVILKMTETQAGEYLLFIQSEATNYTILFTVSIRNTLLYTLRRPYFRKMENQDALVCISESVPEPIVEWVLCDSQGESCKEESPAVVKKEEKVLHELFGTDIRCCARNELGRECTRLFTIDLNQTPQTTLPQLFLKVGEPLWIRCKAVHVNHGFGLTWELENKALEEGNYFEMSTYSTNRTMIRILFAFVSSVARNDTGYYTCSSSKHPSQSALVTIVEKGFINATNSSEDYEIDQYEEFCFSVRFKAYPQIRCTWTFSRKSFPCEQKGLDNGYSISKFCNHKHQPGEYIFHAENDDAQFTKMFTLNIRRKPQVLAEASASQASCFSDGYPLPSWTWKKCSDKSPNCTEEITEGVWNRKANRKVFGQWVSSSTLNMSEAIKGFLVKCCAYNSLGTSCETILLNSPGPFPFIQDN

B1: recombinant human monoclonal antibody EB10 (antibody, human IgG1, kappa)
heavy: EVQLVQSGAEVKKPGASVKVSCKASGYTFTSYYMHWVRQAPGQGLEWMGIINPSGGSTSYAQKFQGRVTMTRDTSTSTVYMELSSLRSEDTAVYYCARGVGAHDAFDIWGQGTTVTVSSASTKGPSVFPLAPSSKSTSGGTAALGCLVKDYFPEPVTVSWNSGALTSGVHTFPAVLQSSGLYSLSSVVTVPSSSLGTQTYICNVNHKPSNTKVDKRV[letters of human IgG1 Fc omitted]
light: DVVMTQSPLSLPVTPGEPASISCRSSQSLLHSNGNNYLDWYLQKPGQSPQLLIYLGSNRASGVPDRFSGSGSDTDFTLQISRVEAEDVGVYYCMQGTHPAISFGQGTRLEIKRTVAAPSVFIFPPSDEQLKSGTASVVCLLNNFYPREAKVQWKVDNALQSGNSQESVTEQDSKDSTYSLSSTLTLSKADYEKHKVYACEVTHQGLSSPVTKSFNRGEC
- % Inhibition of FL-independent proliferation of BaF3-ITD cells at 1.5 nM: 0.5%
- % Inhibition of FL-independent proliferation of BaF3-ITD cells at 3 nM: 0.5%
- % Inhibition of FL-independent proliferation of BaF3-ITD cells at 6 nM: 9.6%
- % Inhibition of FL-independent proliferation of BaF3-ITD cells at 13 nM: 13%
- % Inhibition of FL-independent proliferation of BaF3-ITD cells at 25 nM: 23.3%
- % Inhibition of FL-independent proliferation of BaF3-ITD cells at 50 nM: 28.6%
- % Inhibition of FL-independent proliferation of BaF3-ITD cells at 100 nM: 29.2%
- Inhibition of AKT Phosphorylation (IC50), BaF3-ITD cells, FL-independent: 0.1 nM
- Inhibition of FLT3 Phosphorylation (IC50), BaF3-ITD cells, FL-independent: 4 nM
- Inhibition of MAPK Phosphorylation (IC50), BaF3-ITD cells: 0.1 nM
- Inhibition of Stat5 Phosphorylation (IC50), BaF3-ITD cells, FL-independent: 4 nM
